One assay has as its system HSkMC. Nature of the assay: cytotoxicity call (relative viability < 0.9). The note with it: 10 µM.
The next assay has as its system HepG2. Nature of the assay: cytotoxicity call (relative viability < 0.9). To be noted: 10 µM.
A further assay deals with S. aureus RN4220. Nature of the assay: growth inhibition call (relative growth <= 0.2). To be noted: 50 µM.

Some of the results follow.

As for `CCCN(C)C[C@H]1OCCCC[C@@H](C)Oc2ccc(NC(=O)C3CCCCC3)cc2C(=O)N([C@H](C)CO)C[C@@H]1C`, the cytotoxicity call in the assay with HSkMC and in the assay with HepG2 was “inactive” in each case. Moreover, the growth inhibition call in the assay with S. aureus RN4220 is “inactive”.
For the compound `O=C(N[C@H](NC(=S)Nc1ccc(F)c([N+](=O)[O-])c1)C(Cl)(Cl)Cl)C(c1ccccc1)c1ccccc1`, the cytotoxicity call with HSkMC and with HepG2 was “active” each time. Further, in the assay on S. aureus RN4220, the growth inhibition call is “inactive”.
For `NCCCCCCNC(=O)[C@@H]1C[C@@H]2C(=O)N3CCC[C@H]3C(=O)N2[C@@H]1c1cccc(OCCO)c1`, the cytotoxicity call with HSkMC and in the assay on HepG2 was “inactive” in each case. For the same compound, the growth inhibition call with S. aureus RN4220 is “inactive”.
Consider `CNC[C@H]1Oc2ccc(NC(=O)CCN3CCOCC3)cc2CC(=O)N([C@H](C)CO)C[C@H]1C`, for which the cytotoxicity call in the assay on HSkMC and with HepG2 was “inactive” each time. The growth inhibition call in the assay on S. aureus RN4220 was “inactive”.
Consider `C[C@@H]1CN([C@@H](C)CO)C(=O)c2cc(NC(=O)Nc3ccc(F)cc3)ccc2O[C@@H](C)CCCCO[C@@H]1CN(C)C(=O)c1ccccc1`, for which the cytotoxicity call in the assay with HSkMC and in the assay with HepG2 was “inactive” throughout. Moreover, the growth inhibition call in the assay on S. aureus RN4220 is “inactive”.
As to `Cc1noc(C)c1NC(=O)Nc1ccc2c(c1)C(=O)N([C@@H](C)CO)C[C@@H](C)[C@H](CN(C)Cc1ccc(C(F)(F)F)cc1)OCCCC[C@H](C)O2`, the cytotoxicity call with HSkMC and with HepG2 was “inactive” throughout. In the assay on S. aureus RN4220, the growth inhibition call is “inactive”.
As to `Cc1noc(C)c1S(=O)(=O)Nc1cccc2c1O[C@@H](CN(C)S(=O)(=O)c1cn(C)cn1)[C@@H](C)CN([C@@H](C)CO)C2=O`, the cytotoxicity call in the assay on HSkMC (human skeletal muscle cells) and in the assay with HepG2 was “inactive” each time. The growth inhibition call with S. aureus RN4220 was “inactive”.

For the origin of these results see the antibiotic and cytotoxicity screens of Wong et al. (2023).
